# Tests used:
# Test in all cases: minimum inhibitory concentration
# Gentamicin = compound: CNC(C)C1CCC(N)C(OC2C(N)CC(N)C(OC3OCC(C)(O)C(NC)C3O)C2O)O1 [Gentamicin]
# Experimental: (§1)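 Broth microdilution MIC per ISO 10932 on precoated VetMIC Lact-1 plates (tylosin, vancomycin and ampicillin plates prepared manually) against lactic acid bacteria and bifidobacteria isolates. Plates were read visually after 48 h anaerobic incubation (bifidobacteria 72 h; enterococci and staphylococci 24 h aerobic) at species-specific temperatures of 30 or 37 °C. Values prefixed with < or > are outside the tested dilution range.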
# Chloramphenicol = compound: O=C(N[C@H](CO)[C@H](O)c1ccc([N+](=O)[O-])cc1)C(Cl)Cl [Chloramphenicol]
# Experimental: as §1
# Tetracycline = compound: CN(C)[C@@H]1C(O)=C(C(N)=O)C(=O)[C@@]2(O)C(O)=C3C(=O)c4c(O)cccc4[C@@](C)(O)[C@H]3C[C@@H]12 [Tetracycline]
# Experimental: as §1
# Clindamycin = compound: CCC[C@@H]1C[C@@H](C(=O)N[C@@H]([C@H]2O[C@H](SC)[C@H](O)[C@@H](O)[C@H]2O)[C@H](C)Cl)N(C)C1 [Clindamycin]
# Experimental: as §1
# Kanamycin = compound: NC[C@H]1O[C@H](O[C@H]2[C@H](O)[C@@H](O[C@H]3O[C@H](CO)[C@@H](O)[C@H](N)[C@H]3O)[C@H](N)C[C@@H]2N)[C@H](O)[C@@H](O)[C@@H]1O [Kanamycin]
# Experimental: as §1
# Erythromycin = compound: CC[C@H]1OC(=O)[C@H](C)[C@@H](O[C@H]2C[C@@](C)(OC)[C@@H](O)[C@H](C)O2)[C@H](C)[C@@H](O[C@@H]2O[C@H](C)C[C@H](N(C)C)[C@H]2O)[C@](C)(O)C[C@@H](C)C(=O)[C@H](C)[C@@H](O)[C@]1(C)O [Erythromycin]
# Experimental: as §1
# Streptomycin = compound: CN[C@@H]1[C@H](O[C@H]2[C@H](O[C@H]3[C@H](O)[C@@H](O)[C@H](N=C(N)N)[C@@H](O)[C@@H]3N=C(N)N)O[C@@H](C)[C@]2(O)C=O)O[C@@H](CO)[C@H](O)[C@H]1O [Streptomycin]
# Experimental: as §1
# Ampicillin = compound: CC1(C)S[C@@H]2[C@H](NC(=O)[C@H](N)c3ccccc3)C(=O)N2[C@H]1C(=O)O [Ampicillin]
# Experimental: as §1
# Neomycin = compound: NC[C@@H]1O[C@H](O[C@H]2[C@@H](O)[C@H](O[C@@H]3[C@@H](O)[C@H](N)C[C@H](N)[C@H]3O[C@H]3O[C@H](CN)[C@@H](O)[C@H](O)[C@H]3N)O[C@@H]2CO)[C@H](N)[C@@H](O)[C@@H]1O [Neomycin]
# Experimental: as §1
# 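Note: isolates derived from commercial starter, protective, probiotic or feed-additive cultures, from fermented products, from human gut mucosa or feces, and from human milk or colostrum.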
Test System,minimum inhibitory concentration (Gentamicin) [µg/mL],minimum inhibitory concentration (Chloramphenicol) [µg/mL],minimum inhibitory concentration (Tetracycline) [µg/mL],minimum inhibitory concentration (Clindamycin) [µg/mL],minimum inhibitory concentration (Kanamycin) [µg/mL],minimum inhibitory concentration (Erythromycin) [µg/mL],minimum inhibitory concentration (Streptomycin) [µg/mL],minimum inhibitory concentration (Ampicillin) [µg/mL],minimum inhibitory concentration (Neomycin) [µg/mL]
Limosilactobacillus fermentum IM850 (strain group: human milk or colostrum),1,4,4,0.06,64,0.25,32,1,1
Limosilactobacillus fermentum IM851 (strain group: human milk or colostrum),2,4,4,0.06,64,0.25,32,1,2
Limosilactobacillus fermentum IM857 (strain group: human milk or colostrum),2,4,4,0.06,64,0.25,32,0.5,2
Limosilactobacillus fermentum IM858 (strain group: human milk or colostrum),2,4,4,0.06,64,0.25,32,1,2
Limosilactobacillus fermentum IM864 (strain group: human milk or colostrum),2,8,8,0.06,64,0.25,32,0.5,2
Limosilactobacillus fermentum IM865 (strain group: human milk or colostrum),2,8,4,0.06,128,0.25,32,0.5,2
Limosilactobacillus fermentum IM867 (strain group: human milk or colostrum),2,8,8,0.06,64,0.25,32,0.5,2
Limosilactobacillus fermentum IM915 (strain group: human milk or colostrum),2,8,4,0.06,64,0.25,32,2,2
Limosilactobacillus fermentum IM916 (strain group: human milk or colostrum),2,4,4,0.06,64,0.25,32,2,2
Limosilactobacillus fermentum IM945 (strain group: human milk or colostrum),2,8,8,0.12,64,0.25,32,0.5,2
Limosilactobacillus reuteri IM109 (strain group: feed additives),1,8,8,0.12,64,0.5,16,2,1
Limosilactobacillus reuteri IM843 (strain group: human milk or colostrum),2,4,> 64,0.12,64,0.5,16,> 16,1
Limosilactobacillus reuteri IM844 (strain group: human milk or colostrum),1,4,> 64,0.12,64,0.5,16,> 16,1
Loigolactobacillus coryniformis IM230 (strain group: feed additives),4,4,4,0.25,128,0.5,32,0.5,4
Pediococcus acidilactici/pentosaceus/lolli IM704 (strain group: human milk or colostrum),8,8,32,0.12,512,1,128,4,16
Pediococcus acidilactici/pentosaceus/lolli IM705 (strain group: human milk or colostrum),8,8,32,0.12,512,1,128,4,32
Pediococcus acidilactici/pentosaceus/lolli IM706 (strain group: human milk or colostrum),8,8,32,0.12,256,1,128,4,16
